Some of the results follow.
Each compound was assayed on T1, C. trachomatis L2/434/Bu expressing GFP (CTL2-GFP). Conditions: total inclusion area; 28.5 h, 10 µM; inhibitor.
T1 construct: L2/434/Bu GFP intracellular growth in HeLa cells
Design: species or system HeLa; C. trachomatis total inclusion area by high-content imaging, normalised to DMSO
Outline: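 Host cell viability was gauged from Hoechst-stained nuclei counts, while chlamydial growth was taken from total inclusion area and inclusion number per well. Cells were fixed and imaged by high-content microscopy once bulk GFP and resorufin fluorescence had been measured.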

SMILES | % of control remaining
COc1ccc(CCC(=O)N2CCCC2c2cc(Nc3nccs3)cc(C)n2)cc1 (centres unmarked) [CBK285939] | 96.7236
O=C(Nc1nc(-c2ccccc2)cs1)c1ccc(Br)cc1 [CBK068003] | 119.121
CN(C(=O)c1ccc(-n2nncc2-c2ccccc2)cc1)c1ccccc1 [CBK288107] | 93.9616
CCS(=O)(=O)Nc1cc(Cl)ccc1C [CBK111350] | 106.443
Cc1ncc2c(n1)[C@@H]1CN(C(=O)Cc3cccs3)C[C@@H]1CC2 [CBK284491] | 103.789
COc1ccc(N2CCN(Cc3cc([N+](=O)[O-])ccc3Cl)CC2)cc1 [CBK261571] | 99.5782
CCOC(=O)c1csc(C2CCCN2C(=O)CCc2ccccc2O)n1 (centres unmarked) [CBK305448] | 101.597
O=C(O)CCCCCN1C(=O)C2CC=CCC2C1=O (centres unmarked) [CBK286534] | 91.9244
CC(=O)Nc1cccc(Oc2nccnc2/C=C/c2ccccc2)c1 [CBK106881] | 104.203
Cc1ccc(-c2nnc3ccc(SCC(=O)NC4CCCC4)nn23)cc1 [CBK287523] | 106.583
CC(C)S(=O)(=O)n1ccn(-c2ccc3c(c2)OCO3)c1=O [CBK106630] | 94.4237
CCC(=O)Nc1ccccc1C(=O)C(=O)O [CBK219398] | 100.365
Cc1c(OCCC2CCCCN2C)ccc2c(=O)cc(N3CCOCC3)oc12 (centres unmarked) [CBK016644] | 137.762
Cc1ccccc1NC(=O)CC1c2ccccc2CC(C)(C)N1C (centres unmarked) [CBK262567] | 101.377
CCCn1nc(C)c(CN(C)Cc2n[nH]c3c2CCCC3)c1C [CBK282600] | 105.168
O=C(CSc1nc2ccccc2o1)N1c2ccccc2Sc2ccccc21 [CBK221524] | 74.9715
O=C(C1C2CCCCC21)N1CCC(Oc2ccc(F)cc2)CC1 (centres unmarked) [CBK282065] | 72.1037
NC(=O)c1c(NC(=O)COc2ccccc2[N+](=O)[O-])sc2c1CCC2 [CBK262819] | 90.0909
COc1ccc(CCCC(=O)N2CCN(c3ccccc3OC)CC2)cc1OC [CBK091495] | 98.1227
COc1ccc(-c2cc(C(=O)Nc3nc4c(OC)cccc4s3)cnc2-c2ccccc2)cn1 [CBK036681] | 68.4228
Nc1ncc(-c2cccc3ccccc23)nc1Nc1ccc2[nH]ccc2c1 [CBK063659] | 120.539
O=C(O)C1CSC(c2cc3ccccc3o2)N1 (centres unmarked) [CBK019502] | 71.4641
C#CCNS(=O)(=O)c1ccc(C(=O)Nc2ccnn2Cc2ccccc2)cc1 [CBK297727] | 103.23
COCCc1noc(CC2CCN(c3ncc(Cl)cn3)CC2)n1 [CBK304172] | 78.8428
Cc1cc(S(=O)(=O)N(CCC#N)c2ccccc2)c(C)cc1Cl [CBK043618] | 107.464
O=C(O)C1CCN(C(=O)c2ccc3nsnc3c2)CC1 [CBK057344] | 91.933
COc1ccc(NC(=O)C2CN(S(=O)(=O)c3ccccc3)CCN2S(=O)(=O)c2ccccc2)cc1 (centres unmarked) [CBK262500] | 76.0047

SMILES | % of control remaining
CN(C)C(=O)c1cccc(CNc2ncnc3c2cnn3CCC#N)c1 [CBK305955] | 37.8706
CCOC(=O)c1ccc(N/C=C(\C#N)c2nc(-c3cc4ccccc4oc3=O)cs2)cc1 [CBK262356] | 101.527
CN(C)CC(=O)N1CCN(c2cncc(-c3ccc(O)cc3)n2)CC1 [CBK126921T] | 96.7959
NC1=NNC2=C(c3cccc(Cl)c3)NNN12 [CBK093661] | 78.7116
Cc1c(C(=O)NC(C)c2cc3ccccc3o2)cnn1C (centres unmarked) [CBK283074] | 128.703
O=C(c1ccc(F)cc1)N1C[C@H](c2ccsc2)[C@H]2CN(Cc3cccs3)CC[C@H]21 [CBK285636] | 72.0078
O=C(CSc1ncnc2c1oc1ccccc12)NC1CCCCC1 [CBK287396] | 122.377
COc1ccccc1C1(NC(=O)CCn2nccc2C)CCCC1 [CBK283628] | 98.736
COc1ccc(CNC(=O)c2nc(-c3ccccn3)no2)cc1 [CBK287877] | 88.9086
O=C(Nc1nc2ccccc2s1)c1cc([N+](=O)[O-])ccc1Cl [CBK072428] | 97.8349
Cc1ccc(SCc2ccc(C(=O)Nc3ccccc3C(=O)N3CCCC3)cc2)cc1 [CBK268217] | 101.051
CC(C)Nc1nccnc1-c1cccnc1 [CBK037054] | 102.729
O=C(CCS(=O)(=O)c1nc(-c2ccccc2)cc(C(F)(F)F)n1)Nc1ccc(Cl)cc1Cl [CBK268717] | 73.8089
Fc1ccc(NC(=S)NNC(=S)Nc2cccc3ccccc23)c(F)c1 [CBK266982] | 103.255
CCOc1cccc(-c2cn3ccnc3c(NC3CC3)n2)c1 [CBK066736] | 117.993
FC(F)(F)c1ccc(Sc2cccs2)nc1 [CBK115236] | 90.5624
CC(=O)NC(Cc1c[nH]c2ccccc12)C(=O)N(C)Cc1cnn(C)c1 (centres unmarked) [CBK305274] | 72.789
CC1CCc2c(sc(NC(=O)c3cnccn3)c2C(N)=O)C1 (centres unmarked) [CBK265466] | 69.2055
CS(=O)(=O)N1CCCCCC1c1cc(-c2cccs2)on1 (centres unmarked) [CBK284670] | 83.4369
COc1ccccc1C(=O)N1CCN(C(=O)CN2CCCC2)CC1 [CBK024836] | 67.439
CCn1cc(S(=O)(=O)Nc2cccc(CCCC(=O)O)c2)cn1 [CBK304717] | 82.5514
O=C(NCc1ccccc1)c1ccno1 [CBK200197] | 97.5573
Cc1cc(CNC(=O)N2CCCCC2CO)no1 (centres unmarked) [CBK156160] | 93.713
CCN(CC)C(=O)C1CCCN(C(=O)NCc2ccc(Cl)c(Cl)c2)C1 (centres unmarked) [CBK156119] | 78.4122
CCc1cnc(CN(C)C2CCN(CC(=O)Nc3cccnc3)C2)o1 (centres unmarked) [CBK305358] | 76.8429
N#C/C(=C\c1cn(CCC(N)=O)c2ccccc12)Sc1nc2ccccc2s1 [CBK267897] | 74.3028
COCCCn1c(N)c(C(=O)NCC(C)C)c2nc3ccccc3nc21 [CBK126495] | 100.979

SMILES | % of control remaining
CC(=O)[C@H]1C[C@@H](CC(=O)Nc2ccc(Cl)nc2)C1(C)C [CBK091338] | 94.1615
Cn1nc(NC(=O)c2ccco2)c2c(F)cccc21 [CBK057774] | 64.5778
CCOC(=O)c1c(NC(=O)Cn2nc([N+](=O)[O-])c(Cl)c2C)sc2c1CCC(C)C2 (centres unmarked) [CBK263054] | 101.13
O=C(CC12CC3CC(CC(C3)C1)C2)Nc1nc[nH]n1 [CBK288208] | 75.4275
O=C1CN(C(=O)Cn2c(-c3cccs3)cc3cccnc32)CCN1 [CBK282543] | 120.477
N=c1n(CC(=O)O)c2ccccc2n1Cc1ccccc1 [CBK286531] | 114.002
O=C(NCCCn1ccnc1)c1cnn2c(C(F)(F)F)cc(-c3cccs3)nc12 [CBK263060] | 106.767
O=C(O)c1ccccc1N1C(=O)c2ccc(Oc3ccc(Oc4ccc5c(c4)C(=O)N(c4ccccc4C(=O)O)C5=O)cc3)cc2C1=O [CBK261186] | 105.829
CCOc1cccc(-c2cncc(N(C)CCN(C)C)n2)c1 [CBK065977] | 118.762
Fc1cccc(COc2nc3ccccc3n3nnnc23)c1 [CBK288198] | 89.7675
CN(C)C(=O)c1cc(-c2cccc(N(C)C)c2)cnc1NCC1CC1 [CBK076333] | 116.965
O=C1CNC(=O)C2(C/C=C/C[C@H]3COCC[C@@H]3N1)CCN(Cc1ccc(Cl)cn1)CC2 [CBK292132] | 102.894
CCn1cnnc1CNC(=O)N1CCCN(Cc2cccs2)CC1 [CBK305882] | 51.8365
Cc1nc(NS(=O)(=O)/C=C/c2ccccc2)sc1C(=O)O [CBK045553] | 95.6433
CCOC(=O)C(NC(=O)c1cc[nH]c(=O)c1)c1cccc(C)c1C (centres unmarked) [CBK304174] | 28.4972
Cn1c(CO)nnc1[C@H]1C[C@@H](NC(=O)CCc2ccc(F)cc2F)C1 [CBK306796] | 47.2722
CCCN1C(=O)[C@@H]2[C@@H](CCN2C(=O)C(=O)O)N(Cc2cccs2)C1=O [CBK289277] | 110.757
CCOc1ccc2[nH]c(C(=O)N(C)CCN3CCCCC3)c(C)c2c1 [CBK282699] | 104.112
CN(Cc1ccccc1)CC(O)c1ccc2c(c1)CCCN2C(=O)c1ccccc1F (centres unmarked) [CBK286278] | 92.6087
COc1ccc(S(=O)(=O)Nc2cccc(C(=O)Nc3ccc(F)cc3)c2)cc1OC [CBK038982] | 24.5344
COc1cc(C(=O)N2CCC3(CC2)CC(=O)c2cc(CN4CCOCC4)ccc2O3)cc(OC)c1C [CBK169182] | 106.596
c1cncc(CCNc2nccnc2-c2cccnc2)c1 [CBK037380] | 74.6646
COc1cc(Nc2cc(-c3ccc4c(c3)OCO4)ncn2)cc(OC)c1OC [CBK090704] | 95.5666
CN1CCCC(Cc2cc(-c3ccccc3)no2)(C(=O)N(C)C)C1 (centres unmarked) [CBK281674] | 69.3362
O=[N+]([O-])c1ccc(-c2nc(NCc3cccnc3)c3ccccc3n2)cc1 [CBK264788] | 96.0914
COc1ccc(C(=O)NC(CC(=O)O)c2ccc(OC)cc2)cc1 (centres unmarked) [CBK266188] | 119.651
